# Data reported in PubChem BioAssay AID463173 (ICCB-Longwood Screening Facility, Harvard Medical School, 2010).
# Among all 52,000 compounds or so, about 4,300 (8.3%) were called active. Cut-off read from the data, not from the text of the source: active = survival mostly below about 52% (no sharp cut-off); inactive = mostly above about 56%. The list shows a part of the results.
# Test system: DeltatarO mutant
# Test: growth inhibition of S. aureus wild type versus tarO mutant, primary screen, teichoic acid synthesis inhibitors, RN4220, OD600 (AID 463173)
# Settings: OD600, 18 h, hits give low values, screened at 18.75 µg/mL (by protocol)
row,SMILES,survival
1,COc1ccccc1NC(=O)CC1S/C(=N\N=C(/C)c2ccccc2)NC1=O (stereo not drawn),inactive: 86%
2,CCOC(=O)CC(NC(=O)c1cc2c(=O)n3cccc(C)c3nc2s1)c1ccc(OCC)c(OC)c1 (stereo not drawn),inactive: 159%
3,CCN(CCCNC(=O)c1nn(-c2ccc(C)cc2)c(=O)c2c1c1ccccc1n2C)c1cccc(C)c1,inactive: 76%
4,Cc1ccc(CNC(=O)c2ccc(N3CCCC3)c(NC(=O)Nc3ccc(F)c(Cl)c3)c2)cc1,inactive: 85%
5,Cc1ccc2c(c1)-c1c(c(C(=O)N3CCN(c4cc(C)ccc4C)CC3)nn1C)CS2,inactive: 69%
6,CCn1c(=O)cc(OCC(=O)N2CCN(c3cccc(C)c3C)CC2)c2ccccc21,inactive: 123%
7,Cc1cccc(NC(=O)CN2C(=O)C(c3ccc(F)cc3)=NC23CCCCCC3)c1,inactive: 87%
8,COc1cccc(CNC(=O)CN2C(=O)COc3ccc(S(=O)(=O)N4CCOCC4)cc32)c1,inactive: 94%
9,COc1ccc(NC(=O)Cn2c(=O)c3ccccc3n3nncc23)c(OC)c1,inactive: 96%
10,CC(=O)c1c(C)oc2c1cc(NS(=O)(=O)c1ccc(C(C)(C)C)cc1)c1ccccc12,inactive: 64%
11,Cc1cc(C)c(NC(=O)Cn2c(=O)n(Cc3ccc(C(=O)NCc4ccc5c(c4)OCO5)cc3)c(=O)c3ccccc32)c(C)c1,inactive: 82%
12,Cc1ccc(CNC(=O)C(C)n2nc(C)c3sc4ccccc4c3c2=O)cc1 (stereo not drawn),inactive: 99%
13,COC(=O)c1ccc(NC(=O)CN(C)S(=O)(=O)c2ccc(Br)s2)cc1,inactive: 73%
14,COc1cccc(-n2c(SCc3ccc(F)cc3)nc3c([nH]c4ccccc43)c2=O)c1,inactive: 103%
15,Cc1ccc2nc(-c3ccc(Cl)s3)c(Nc3ccc4c(c3)OCCO4)n2c1,inactive: 91%
16,Cc1nn2c(C)c(C(=O)NCc3ccc(OC(C)C)cc3)cnc2c1-c1ccc(F)cc1,inactive: 87%
17,COc1ccc(Cn2ccnc2SCC(=O)Nc2nnc(C)s2)cc1,inactive: 115%
18,O=C(Oc1ccccc1)c1ccc2nccnc2c1,inactive: 83%
19,O=C(CNS(=O)(=O)c1ccc(Cl)cc1)NN=C1CCCCC1,inactive: 92%
20,CCOc1ccccc1NC(=O)c1ccc(F)c(S(=O)(=O)N2CCN(c3ccc(F)cc3)CC2)c1,inactive: 76%
21,CCOc1ccc(C(=O)NCC(c2cccs2)S(=O)(=O)c2ccccc2)cc1 (stereo not drawn),inactive: 97%
22,CCOc1ccc(C(=O)NCCSc2c(C)[nH]c3ccccc23)cc1OCC,inactive: 56%

row,SMILES,survival
1,CCOc1ccc(NC(=O)c2cc(C)nc3c2c(C)nn3-c2ccc(C)cc2)cc1,inactive: 124%
2,Cc1cccc(C(=O)N2CCc3cc(CNC(=O)CSc4ccccc4)ccc32)c1,inactive: 77%
3,COc1cccc(C(=O)Oc2c(Sc3ccc(C)cc3)c(C)nn2C(C)(C)C)c1OC,active: 21%
4,COC(=O)c1ccccc1NC(=O)CN1C(=O)COc2ccc(Cl)cc21,active: 38%
5,COc1ccc(NC(=O)c2cc(S(=O)(=O)N3CCCC3)ccc2OC)cc1,inactive: 91%
6,CC(C)Cc1nn2c(=O)cc(COC(=O)c3ccc(NC(=O)C4CCCCC4)cc3)nc2s1,inactive: 73%
7,Clc1ncnc2c1oc1ccccc12,inactive: 107%
8,CCOc1cccc(CC(=O)N2CCc3c([nH]c4ccc(OC)cc34)C2c2ccc(F)cc2)c1OCC (stereo not drawn),inactive: 79%
9,O=C(COc1ccc(Cl)cc1)Nc1nnc(S(=O)(=O)N2CCCCCC2)s1,active: 55%
10,Cc1ccc(S(=O)(=O)n2nc(C)c(S(=O)(=O)N3CCCCCC3)c2C)cc1C,inactive: 80%
11,Cc1ccn2c(Nc3ccc4c(c3)OCCO4)c(-c3ccccc3O)nc2c1,inactive: 70%
12,CCCCOc1ccc(C2C(C(=O)Nc3ccccc3OC)=C(C)Nc3nnnn32)cc1OC (stereo not drawn),inactive: 85%
13,CC(=O)N1CCCc2cc(S(=O)(=O)N3CCC(C(=O)Nc4ccc(C)cc4Cl)CC3)ccc21,inactive: 68%
14,CCN(CC)CCCNC(=O)CCC(=O)NNc1nc2ccccc2c2nc(C)nn12,inactive: 94%
15,COc1ccccc1N1CCN(C(CNC(=O)C(=O)NCc2cccnc2)c2cccnc2)CC1 (stereo not drawn),inactive: 71%
16,CCOC(=O)c1c(NC(=O)c2cc(-c3ccc(OC)c(OC)c3)on2)sc(C)c1C,active: 42%
17,O=C1c2ccccc2-c2n[nH]c(=S)nc21,inactive: 64%
18,COc1ccccc1CNC(=O)c1cc2c(s1)-c1ccc(Cl)cc1SC2,inactive: 79%
19,Cc1ccccc1CNC(=O)CSc1nnc(C)c2c(C)n(-c3ccccc3)nc12,inactive: 117%
20,CCc1cc2c(=O)[nH]cnc2s1,inactive: 99%
21,CC(C)c1ccc(NS(=O)(=O)c2cc(Br)cc3c2N(C(=O)C2CC2)CC3)cc1,inactive: 56%
22,Cn1cnc(S(=O)(=O)N2CCCC(C(=O)NCc3ccc(F)cc3)C2)c1 (stereo not drawn),inactive: 55%

row,SMILES,survival
1,COc1ccc(OC)c(-c2noc(N3CCN(c4ccc(Cl)cc4)CC3)n2)c1,inactive: 88%
2,Cc1cc(C)cc(NS(=O)(=O)c2ccc3[nH]cc(C(=O)NCCc4ccccc4)c(=O)c3c2)c1,inactive: 72%
3,CCOc1ccc(NC(=O)C(=O)NCCc2csc(-c3ccc(C(F)(F)F)cc3)n2)cc1,inactive: 94%
4,Cc1ccc(C(=O)N2CCn3c4c(c5cc(C)ccc53)CCCC42)cc1 (stereo not drawn),active: -1%
5,COc1ccc(CCNC(=O)c2ccc3c(c2)N(Cc2ccccc2)CCS3)cc1OC,inactive: 76%
6,CCn1c(-c2ccccc2)cnc1SCC(=O)c1sc2c(c1C#N)CCCC2,inactive: 87%
7,Cc1cc(NC(=O)Nc2nnc(N3CCCCCC3)s2)ccc1Br,inactive: 83%
8,Cc1ccc(-c2nn(-c3ccccc3)c3c2cnc2ccccc23)cc1C,inactive: 68%
9,Cc1ccc(CNC(=O)c2ccc(Nc3nc4ccccc4n4nnnc34)cc2)cc1,inactive: 124%
10,Cc1ccc(NC(=O)c2oc3c(c2C)-c2[nH]ncc2CC3)c(Cl)c1,inactive: 64%
11,COc1cc(NC(=O)C2CCCCC2)c(OC)cc1NC(=O)CCC(=O)NCc1ccco1,inactive: 98%
12,CCc1ccc(NC(=O)COC(=O)CCCC2=NS(=O)(=O)c3ccccc3N2)cc1,inactive: 109%
13,O=C1CSC2(C(=O)N(Cc3ccccc3)c3ccccc32)N1c1cccc(F)c1 (stereo not drawn),inactive: 77%
14,COc1cc(-c2nc(-c3ccc4c(c3)[nH]c(=O)n4C)no2)cc(OC)c1OC,inactive: 94%
15,CCOc1ccccc1NC(=O)C1CCN(S(=O)(=O)c2ccc3[nH]c(=O)ccc3c2)CC1,inactive: 63%
16,COc1ccc(-n2c(/C=C/c3cccc(C(F)(F)F)c3)nc3ccccc3c2=O)cc1Cl,inactive: 90%
17,CCOc1ccc(CCNC(=O)C2CCN(Cc3nc(-c4ccc(OC)c(OC)c4)oc3C)CC2)cc1OCC,inactive: 89%
18,Cc1ccc(S(=O)(=O)N2CCN(Cc3cc(Br)ccc3O)CC2)cc1,inactive: 59%
19,Cc1ccn2c(=O)cc(COc3ccc(NC(=O)COc4ccccc4)cc3)nc2c1,inactive: 96%
20,Cn1cc(S(=O)(=O)N2CCCCCC2)cc1C(=O)N1CCN(c2cccc(C(F)(F)F)c2)CC1,inactive: 99%
21,COc1ccc(C2SCCN2S(=O)(=O)c2ccc(NC(C)=O)cc2)cc1OC (stereo not drawn),inactive: 84%
22,CCC(=O)N1CCc2cc(Br)cc(S(=O)(=O)N3CCCC(C(=O)NCc4ccc(F)cc4)C3)c21 (stereo not drawn),inactive: 95%

row,SMILES,survival
1,Cc1cccc(-c2noc(-c3ccc(NCc4ccco4)c([N+](=O)[O-])c3)n2)c1,inactive: 59%
2,O=C(c1ccco1)N1CCN(c2nc3c(F)cc(F)cc3s2)CC1,inactive: 109%
3,CCC(C)(C)C(=O)Nc1ccc(Cl)cc1,inactive: 93%
4,CCC(=O)N1c2ccccc2CC1C(=O)NCc1cccc(OC)c1OC (stereo not drawn),inactive: 84%
5,Cc1ccc2nc(COc3ccccc3NC(=O)c3ccccc3C)cc(=O)n2c1,inactive: 81%
6,COc1ccc(-c2nnc(SCC(=O)Nc3cc(OC)ccc3OC)nc2-c2ccc(OC)cc2)cc1,inactive: 80%
7,CCOC(=O)CS(=O)(=O)c1nc2c(c(C(F)(F)F)n1)CCc1ccccc1-2,inactive: 98%
8,CCc1cccc(C)c1NC(=O)Cn1c(=O)n(-c2ccc(C)cc2)c(=O)c2c1cnn2C,inactive: 74%
9,COc1ccc(CCn2c(=O)c3cccnc3n(CC(=O)Nc3c(C)cccc3C)c2=O)cc1OC,inactive: 90%
10,O=S(=O)(c1ccc(Cl)cc1)c1nc(-c2cccc(Br)c2)oc1NCc1ccccc1,inactive: 81%
11,COc1ccc(OC)c(NC(=O)c2ccc3c(SCC(=O)O)c4c(nc3c2)CCCC4)c1,inactive: 64%
12,Cc1cccc(CCNC(=O)c2ccc3c(c2)nc2n3CCC(C)C2)c1 (stereo not drawn),inactive: 92%
13,Cc1ccccc1CNC(=O)c1nn(-c2ccccc2F)nc1CO,inactive: 85%
14,COc1ccc(C(=O)Nc2ccc(-c3nnc4n3CCCCC4)cc2)cc1,active: 0%
15,COc1cccc2c1Oc1ncccc1N(C(=O)CCC(=O)NCCC(C)C)C2,inactive: 80%
16,O=c1c2sccc2n(Cc2cc(=O)n3ccccc3n2)c(=O)n1-c1cc(F)ccc1F,inactive: 69%
17,COc1cc(OC)cc(C(=O)Nc2cc(-c3nc4ccccc4[nH]3)ccc2C)c1,active: 44%
18,O=C(/C=C/c1ccco1)Nc1ccc(F)cc1,inactive: 94%
19,COC(=O)c1c(SC)nc2ccccc2c1OCc1ccc(Br)cc1,inactive: 59%
20,CCOC(=O)C1CCCN(c2nc3c(S(=O)(=O)c4ccc(Br)cc4)nnn3c3ccsc23)C1 (stereo not drawn),inactive: 94%
21,CCOc1ccc2nc(N3CCN(C(=O)c4ccc(S(=O)(=O)CC)cc4)CC3)sc2c1,inactive: 95%
22,COc1ccc(-n2cc(C(=O)N(CCN(C)C)Cc3ccccc3)c3ccccc3c2=O)cc1,inactive: 75%
